# In the supplement of paper PMC6089552:
# Values joined by “and” are separate entries in the source; they are usually repeats but may differ in a detail not shown here. Equal entries are not always repeated. Out of some 3,200 compounds screened, about 300 (9.4%) showed activity. This is a selection; strong and weak results do not stand in their true shares.
# Tested on: A673/TR/shEF
# Assay: cell viability (LOESS-normalised, relative to median of negative controls) (log2 ratio); higher = more viable cells (less compound effect), active = hit call of the paper (over 3 MAD below the median)
# Settings: treatment time: 72 h
# Outline: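 For three days, A673/TR/shEF Ewing sarcoma cells in 384-well plates (1,500 per well) were treated with library compounds at two or more concentrations or with DMSO controls, after doxycycline had been added or withheld 24 h beforehand to induce EWS-FLI1 shRNA knockdown. Viability was read by CellTiter-Glo luminescence on an Envision reader. The data were LOESS-corrected per plate, divided by the median of negative controls and log2-transformed.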
# [1] = 0.25 µM, library screen: screen1, EWS-FLI1 expression: high (no doxycycline)
# [2] = 0.25 µM, library screen: screen1, EWS-FLI1 expression: low (doxycycline-induced shRNA knockdown)
# [3] = 0.25 µM, library screen: screen2, EWS-FLI1 expression: high (no doxycycline)
# [4] = 0.25 µM, library screen: screen2, EWS-FLI1 expression: low (doxycycline-induced shRNA knockdown)
# [5] = 2.5 µM, library screen: screen1, EWS-FLI1 expression: high (no doxycycline)
# [6] = 2.5 µM, library screen: screen1, EWS-FLI1 expression: low (doxycycline-induced shRNA knockdown)
# [7] = 2.5 µM, library screen: screen2, EWS-FLI1 expression: high (no doxycycline)
# [8] = 2.5 µM, library screen: screen2, EWS-FLI1 expression: low (doxycycline-induced shRNA knockdown)
# [9] = 0.103 µM, library screen: screen3, EWS-FLI1 expression: high (no doxycycline)
# [10] = 0.103 µM, library screen: screen3, EWS-FLI1 expression: low (doxycycline-induced shRNA knockdown)
# [11] = 0.308 µM, library screen: screen3, EWS-FLI1 expression: high (no doxycycline)
# [12] = 0.308 µM, library screen: screen3, EWS-FLI1 expression: low (doxycycline-induced shRNA knockdown)
# [13] = 0.926 µM, library screen: screen3, EWS-FLI1 expression: high (no doxycycline)
# [14] = 0.926 µM, library screen: screen3, EWS-FLI1 expression: low (doxycycline-induced shRNA knockdown)
# [15] = 2.8 µM, library screen: screen3, EWS-FLI1 expression: high (no doxycycline)
# [16] = 2.8 µM, library screen: screen3, EWS-FLI1 expression: low (doxycycline-induced shRNA knockdown)
# [17] = 8.3 µM, library screen: screen3, EWS-FLI1 expression: high (no doxycycline)
# [18] = 8.3 µM, library screen: screen3, EWS-FLI1 expression: low (doxycycline-induced shRNA knockdown)
# [19] = 25 µM, library screen: screen3, EWS-FLI1 expression: high (no doxycycline)
# [20] = 25 µM, library screen: screen3, EWS-FLI1 expression: low (doxycycline-induced shRNA knockdown)
compound,measurement,setting,value
O=C(O)c1cc(=O)c2ccc(Cl)cc2[nH]1,cell viability (log2),[1],inactive: 0.0619
same,cell viability (log2),[2],inactive: 0.111
same,cell viability (log2),[3],inactive: 0.252
same,cell viability (log2),[4],inactive: 0.173
same,cell viability (log2),[5],inactive: 0.0566
same,cell viability (log2),[6],inactive: 0.0557
same,cell viability (log2),[7],inactive: 0.181
same,cell viability (log2),[8],inactive: 0.177
NCc1ccc(S(N)(=O)=O)cc1,cell viability (log2),[1],inactive: 0.0629
same,cell viability (log2),[2],inactive: 0.0602
same,cell viability (log2),[5],inactive: 0.0995
same,cell viability (log2),[6],inactive: 0.0341
CC/C(=C(\c1ccccc1)c1ccc(OCCN(C)C)cc1)c1ccccc1,cell viability (log2),"0.025 µM, library screen: screen2, EWS-FLI1 expression: high (no doxycycline)",inactive: 0.101
same,cell viability (log2),"0.025 µM, library screen: screen2, EWS-FLI1 expression: low (doxycycline-induced shRNA knockdown)",inactive: 0.036
same,cell viability (log2),[9],inactive: -0.0663
same,cell viability (log2),[10],inactive: 0.0362
same,cell viability (log2),[1],inactive: 0.0407
same,cell viability (log2),[2],inactive: 0.116
same,cell viability (log2),[3],inactive: 0.141
same,cell viability (log2),[4],inactive: 0.0605
same,cell viability (log2),[11],inactive: 0.0614
same,cell viability (log2),[12],inactive: 0.0373
same,cell viability (log2),[13],inactive: 0.139
same,cell viability (log2),[14],inactive: 0.0387
same,cell viability (log2),[5],inactive: 0.148
same,cell viability (log2),[6],inactive: 0.145
same,cell viability (log2),[7],inactive: 0.182
same,cell viability (log2),[8],inactive: 0.118
same,cell viability (log2),[15],inactive: 0.102
same,cell viability (log2),[16],inactive: 0.0193
same,cell viability (log2),[17],inactive: 0.0588
same,cell viability (log2),[18],inactive: 0.0342
same,cell viability (log2),"25 µM, library screen: screen2, EWS-FLI1 expression: high (no doxycycline)",inactive: 0.0567
same,cell viability (log2),"25 µM, library screen: screen2, EWS-FLI1 expression: low (doxycycline-induced shRNA knockdown)",inactive: 0.124
same,cell viability (log2),[19],inactive: 0.0314
same,cell viability (log2),[20],inactive: 0.0332
C#C[C@]1(O)CC[C@H]2[C@@H]3CCC4=C(CCC(=O)C4)[C@H]3CC[C@@]21C,cell viability (log2),[1],inactive: 0.0211
same,cell viability (log2),[2],inactive: -0.000537
same,cell viability (log2),[5],inactive: 0.0513
same,cell viability (log2),[6],inactive: 0.0695
COc1cc(OC)c(-c2c(OC)cc(OC)cc2OC)c(OC)c1,cell viability (log2),[1],inactive: 0.14
same,cell viability (log2),[2],inactive: 0.0211
same,cell viability (log2),[5],inactive: 0.176
same,cell viability (log2),[6],inactive: 0.0686
CC(C)(C)NCC(O)c1cc(O)cc(O)c1 (stereo not drawn),cell viability (log2),[1],inactive: 0.0961
same,cell viability (log2),[2],inactive: 0.111
same,cell viability (log2),[3],inactive: 0.113
same,cell viability (log2),[4],inactive: 0.0509
same,cell viability (log2),[5],inactive: 0.157
same,cell viability (log2),[6],inactive: 0.192
same,cell viability (log2),[7],inactive: 0.201
same,cell viability (log2),[8],inactive: 0.0252
CC[N+](CC)(CC)CCOc1cccc(OCC[N+](CC)(CC)CC)c1OCC[N+](CC)(CC)CC,cell viability (log2),[9],inactive: 0.0398
same,cell viability (log2),[10],inactive: 0.024
same,cell viability (log2),[1],inactive: 0.0529
same,cell viability (log2),[2],inactive: 0.012
same,cell viability (log2),[3],inactive: 0.159
same,cell viability (log2),[4],inactive: 0.049
same,cell viability (log2),[11],inactive: -0.00105
same,cell viability (log2),[12],inactive: 0.0392
same,cell viability (log2),[13],inactive: 0.102
same,cell viability (log2),[14],inactive: 0.0616
same,cell viability (log2),[5],inactive: 0.217
same,cell viability (log2),[6],inactive: 0.0215
same,cell viability (log2),[7],inactive: 0.193
same,cell viability (log2),[8],inactive: 0.0796
same,cell viability (log2),[15],inactive: -0.0258
same,cell viability (log2),[16],inactive: 0.0455
same,cell viability (log2),[17],inactive: -0.0163
same,cell viability (log2),[18],inactive: 0.0323
same,cell viability (log2),[19],0.42
same,cell viability (log2),[20],inactive: 0.0765
CCOc1ccc(NC(C)=O)cc1,cell viability (log2),[1],inactive: 0.128
same,cell viability (log2),[2],inactive: -0.0163
same,cell viability (log2),[5],inactive: 0.183
same,cell viability (log2),[6],inactive: 0.102
CN1CCC[C@@H]1CCO[C@](C)(c1ccccc1)c1ccc(Cl)cc1,cell viability (log2),[9],inactive: 0.141
same,cell viability (log2),[10],inactive: 0.0523
same,cell viability (log2),[1],inactive: 0.0794
same,cell viability (log2),[2],inactive: 0.13
same,cell viability (log2),[3],inactive: 0.0531
same,cell viability (log2),[4],inactive: 0.128
same,cell viability (log2),[11],inactive: 0.0964
same,cell viability (log2),[12],inactive: 0.0784
same,cell viability (log2),[13],inactive: 0.12
same,cell viability (log2),[14],inactive: 0.0683
same,cell viability (log2),[5],inactive: 0.0576
same,cell viability (log2),[6],inactive: -0.00561
same,cell viability (log2),[7],inactive: 0.106
same,cell viability (log2),[8],inactive: 0.0339
same,cell viability (log2),[15],inactive: 0.0902
same,cell viability (log2),[16],inactive: 0.0397
same,cell viability (log2),[17],inactive: 0.0198
same,cell viability (log2),[18],inactive: 0.0364
same,cell viability (log2),[19],inactive: 0.0553
same,cell viability (log2),[20],inactive: -0.00614
CC(C(=O)O)c1ccc(C(=O)c2cccs2)cc1 (stereo not drawn),cell viability (log2),[1],inactive: 0.0835
same,cell viability (log2),[2],inactive: 0.0129
same,cell viability (log2),[5],inactive: 0.155
same,cell viability (log2),[6],inactive: -0.0021
COc1cc2ncnc(Nc3ccc(F)c(Cl)c3)c2cc1OCCCN1CCOCC1,cell viability (log2),[9],inactive: 0.066
same,cell viability (log2),[10],inactive: 0.0855
same,cell viability (log2),[11],inactive: 0.103
same,cell viability (log2),[12],inactive: 0.0493
same,cell viability (log2),[13],inactive: 0.114
same,cell viability (log2),[14],inactive: 0.0535
same,cell viability (log2),[15],inactive: 0.136
same,cell viability (log2),[16],inactive: 0.0991
same,cell viability (log2),[17],inactive: 0.00987
same,cell viability (log2),[18],inactive: 0.0751
same,cell viability (log2),[19],inactive: -0.0152
same,cell viability (log2),[20],inactive: 0.0721
O=C(O)c1cccnc1C(=O)O,cell viability (log2),[1],inactive: 0.105
same,cell viability (log2),[2],inactive: 0.0198
same,cell viability (log2),[3],inactive: 0.153
same,cell viability (log2),[4],inactive: 0.0262
same,cell viability (log2),[5],inactive: 0.0345
same,cell viability (log2),[6],inactive: 0.0548
same,cell viability (log2),[7],inactive: 0.169
same,cell viability (log2),[8],inactive: 0.0401
CCN1CCC[C@H]1CNC(=O)c1c(O)c(Cl)cc(Cl)c1OC,cell viability (log2),[3],inactive: 0.269
same,cell viability (log2),[4],inactive: 0.092
same,cell viability (log2),[7],inactive: 0.266
same,cell viability (log2),[8],inactive: 0.199
COc1cc2c(cc1-c1coc3c4c(c(OC)cc3c1=O)OC(C)(C)C=C4)OCO2,cell viability (log2),[1],inactive: 0.082
same,cell viability (log2),[2],inactive: 0.0865
same,cell viability (log2),[5],inactive: 0.173
same,cell viability (log2),[6],inactive: 0.0953
CC[C@@H]([C@H](C)O)n1ncn(-c2ccc(N3CCN(c4ccc(OC[C@@H]5CO[C@@](Cn6cncn6)(c6ccc(F)cc6F)C5)cc4)CC3)cc2)c1=O,cell viability (log2),[9],inactive: 0.0599
same,cell viability (log2),[10],inactive: 0.149
same,cell viability (log2),[11],inactive: 0.118
same,cell viability (log2),[12],inactive: 0.0845
same,cell viability (log2),[13],inactive: 0.138
same,cell viability (log2),[14],inactive: 0.0454
same,cell viability (log2),[15],inactive: 0.0821
same,cell viability (log2),[16],inactive: 0.0872
same,cell viability (log2),[17],inactive: 0.0755
same,cell viability (log2),[18],inactive: 0.0834
same,cell viability (log2),[19],inactive: -0.161
same,cell viability (log2),[20],inactive: -0.034
COc1cccc(CN2CCN(Cc3cc(OC)c(OC)cc3[N+](=O)[O-])CC2)c1,cell viability (log2),[1],inactive: 0.0802
same,cell viability (log2),[2],inactive: 0.0593
same,cell viability (log2),[5],inactive: 0.0795
same,cell viability (log2),[6],inactive: 0.122
COc1cc(OC)c2c(=O)c(-c3ccccc3)c(C)oc2c1OC,cell viability (log2),[1],inactive: 0.0674
same,cell viability (log2),[2],inactive: 0.0259
same,cell viability (log2),[5],inactive: 0.0359
same,cell viability (log2),[6],inactive: 0.0223
CC(C)Cc1ccc(C(C)C(=O)O)cc1 (stereo not drawn),cell viability (log2),[9],inactive: 0.0539 and inactive: 0.0202
same,cell viability (log2),[10],inactive: 0.0749 and inactive: 0.0782
same,cell viability (log2),[1],inactive: 0.0705
same,cell viability (log2),[2],inactive: -0.0597
same,cell viability (log2),[3],inactive: 0.0139
same,cell viability (log2),[4],inactive: 0.043
same,cell viability (log2),[11],inactive: 0.0639 and inactive: 0.0471
same,cell viability (log2),[12],inactive: 0.0528 and inactive: 0.0832
same,cell viability (log2),[13],inactive: 0.0795 and inactive: -0.00697
same,cell viability (log2),[14],inactive: 0.065 and inactive: 0.0261
same,cell viability (log2),[5],inactive: 0.137
same,cell viability (log2),[6],inactive: -0.0717
same,cell viability (log2),[7],inactive: 0.0762
same,cell viability (log2),[8],inactive: 0.0533
same,cell viability (log2),[15],inactive: 0.11 and inactive: 0.0253
same,cell viability (log2),[16],inactive: 0.0843 and inactive: 0.0402
same,cell viability (log2),[17],inactive: 0.0587 and inactive: 0.0777
same,cell viability (log2),[18],inactive: 0.0621 and inactive: 0.0478
same,cell viability (log2),[19],inactive: 0.123 and inactive: 0.0399
same,cell viability (log2),[20],inactive: 0.0838 and inactive: 0.0828
